Data reported in PubChem BioAssay AID1240 (Sanford-Burnham Center for Chemical Genomics, 2008).
The whole screen tested about 50,000 compounds, of which about 800 (1.6%) showed an effect of 50% or more. The list shows a part of the results.

Each compound was assayed against Bcl-2-like protein 10 (Homo sapiens) (UniProt Q9HD36) (assay: Phenotype converters, Bcl-B/TR3 peptide binding displacement, primary biochemical FP (AID 1240;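 note: 0% = Bcl-B with tracer peptide and DMSO and 100% = tracer peptide lacking Bcl-B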)). Conditions: GST-Bcl-B / FITC-TR3 peptide fluorescence polarization; stronger effect = higher value; compound at 3.75 mg/L.
Sequence of UniProt Q9HD36 (Q9HD36 whole entry, looked up): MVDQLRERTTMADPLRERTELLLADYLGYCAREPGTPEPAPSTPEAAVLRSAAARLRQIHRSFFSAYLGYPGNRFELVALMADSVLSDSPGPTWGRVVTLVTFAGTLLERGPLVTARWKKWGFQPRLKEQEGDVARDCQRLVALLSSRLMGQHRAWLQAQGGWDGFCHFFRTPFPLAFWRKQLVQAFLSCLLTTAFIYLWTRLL

Row | Structure (SMILES) | displacement [%]
1 | O=C1C(Nc2ccccc2)=CC(c2ccc(F)cc2)N1c1ccccc1 (centres undefined) | 0.4
2 | Fc1cnc(Nc2ccccc2)nc1Nc1ccccc1 | 2.7
3 | CC1=C(C(=O)OCc2ccccc2)C(c2cccc(Cl)c2)C2=C(CCCC2=O)N1 (centres undefined) | 5.9
4 | CN(C)c1ccc(NC(=O)c2cc(-c3ccccc3Cl)nc3ccccc23)cc1 | -0.2
5 | CCCOc1ccc(/C=N/N2CCN(Cc3ccc(C)cc3)CC2)cc1 | 6.6
6 | COc1ccc(NC(=O)C(=O)N/N=C/c2cccc(OC)c2OC)cc1 | 2.5
7 | COc1cc(NC(=O)c2ccco2)cc(OC)c1 | 4.7
8 | CCCC(=O)c1ccc(N2CCOCC2)c(F)c1 | 1.8
9 | CCN(CC)CCN1C(=O)C(O)=C(C(=O)/C=C/c2ccccc2)C1c1ccccc1 (centres undefined) | -14.1
10 | Cc1ccc(/C=C(\C#N)c2nc(-c3cc4cc(Br)ccc4oc3=O)cs2)o1 | -5
11 | CNC(=S)N(C)/N=C(C)\C=N\N(C)C(=S)NC | -1.9
12 | CC(NC(=O)C12CC3(C)CC(C)(CC(C)(C3)C1)C2)C(=O)Nc1ccc(F)cc1F (centres undefined) | -10
13 | CCOC(=O)c1c(NC(=S)Nc2ccc(OC)cc2)sc2c1CCC2 | 10
14 | CCOC(=O)C1=C(C)N=c2s/c(=C\c3cc(Cl)c(O)c(OC)c3)c(=O)n2C1c1ccccc1 (centres undefined) | -44.5
15 | c1ccc2c(OCCCN3CCOCC3)cccc2c1 | 2.6
16 | CCOc1cc(/C=N/n2nnnc2N)ccc1OCc1c(C)no[n+]1[O-] | -4.5
17 | CCOC(=O)C1C(=O)NCC2CCCC21 (centres undefined) | 4.6
18 | COC(=O)CN(c1ccc(OC)cc1)S(=O)(=O)c1ccc(C)cc1 | 1.2
19 | CSCCC(NC(=O)/C(=C\c1ccccc1)NC(=O)c1ccco1)C(=O)O (centres undefined) | -7.2
20 | O=C(Nc1cc(Cl)ccc1C(=O)O)c1cccs1 | 2
21 | Cc1cccc(-c2noc(C(c3ccccc3)c3ccccc3)n2)c1 | 11.9
22 | CCOc1cccc(C(=O)Nc2nc(-c3ccc(CC)cc3)cs2)c1 | -5.5
23 | COC(=O)C1=C(C)NC(=S)NC1c1ccc(C(C)C)cc1 (centres undefined) | 6.3

Row | Structure (SMILES) | displacement [%]
24 | N#C/C(=C\C=C\c1ccccc1)C(=O)NCC1CCCO1 (centres undefined) | 0.4
25 | CCN(C(=O)N1CCOCC1)c1ccccc1 | -8.6
26 | CC1=C(C(=O)Nc2ccc(C)cc2)C(c2ccc(C)cc2)NC(=S)N1 (centres undefined) | 1.4
27 | O=C1c2ccccc2C(=O)c2c(C#Cc3ccccc3)cccc21 | 10.5
28 | O=C(Nc1cc(Cl)ccc1O)c1cnn2c(C(F)(F)F)cc(-c3cccs3)nc12 | 3.7
29 | O=C(O)c1ccc(/C=N/Nc2nncc(=O)[nH]2)cc1 | -10.2
30 | Cc1ccc(S(=O)(=O)N(Cc2ccco2)CC(O)Cn2c3ccccc3c3ccccc32)cc1 (centres undefined) | 5.9
31 | CN(C)c1ccc(NS(=O)(=O)c2ccc(N3C(=O)c4ccccc4C3=O)cc2)cc1 | -8.7
32 | COc1ccccc1-c1coc2cc(OC(=O)c3ccccc3C)ccc2c1=O | 1.9
33 | COC(=O)COc1ccc(/C=N/NC(=O)CSc2nc(C)cc(C)n2)cc1 | -5
34 | O=C(Cc1ccc(Br)cc1)Nc1ccccc1 | 8.3
35 | COc1ccc(CCNC(=O)c2ccccc2[N+](=O)[O-])cc1OC | -4
36 | Cc1[nH]n(-c2ccccc2)c(=O)c1/C=C1/C=Nc2ccccc21 | 16.6
37 | O=C(NC[n+]1ccccc1)c1ccc(Cl)cc1 | 0.7
38 | CN1CCN(C(=O)CN2C(=O)/C(=C/c3cccc(Br)c3)SC2=S)CC1 | 7.8
39 | COc1ccc(CCNc2cc(N3CCN(S(=O)(=O)N(C)C)CC3)ccc2[N+](=O)[O-])cc1OC | 18
40 | Cc1cc(C(=O)NCCC(c2ccccc2)c2ccccc2)ccc1[N+](=O)[O-] | -9.9
41 | O=C1c2ccccc2C(=O)N1/N=C/c1ccc(O)cc1O | -18.8
42 | CC(=O)OC1CC(C)(C)N([O])C(C)(C)C1 | 5.8
43 | Cc1cc(N2C(=O)NC(=O)/C(=C\c3cccc(F)c3)C2=O)ccc1Br | -2.3
44 | C=CCN1C(=O)/C(=C\c2ccc(Br)c([N+](=O)[O-])c2)SC1=S | 32.1
45 | COc1ccc(C(O)c2coc3ccc(O)c(CN(C)C)c23)cc1 (centres undefined) | 8.7
46 | O=C(N/C(=C/c1ccc(-c2cccc(C(F)(F)F)c2)o1)C(=O)N1CCOCC1)c1ccc(Cl)cc1 | -4.4

Row | Structure (SMILES) | displacement [%]
47 | CC(C)C(=O)N1CCN(c2ccc(F)cc2)CC1 | 0.4
48 | CCOc1ccc(N(CC(=O)Nc2ccc(Cl)cc2)S(C)(=O)=O)cc1 | 1.5
49 | O=C(Nc1ccccc1)c1cccc(S(=O)(=O)Nc2ccccn2)c1 | -12
50 | Cc1ccc(C)c(NC(=O)C2CC(O)CN2C(=O)OCc2ccccc2)c1 (centres undefined) | 6.7
51 | C/C(Cn1nnc([N+](=O)[O-])n1)=N\NC(=O)c1ccccc1Cl | -6.4
52 | CCOC(=O)COc1ccc(-c2nc3sc4c(c3c(=O)[nH]2)CCCC4)cc1OC | -114
53 | O=C(CSc1ccccn1)OCC(=O)c1ccc(Br)cc1 | 10.3
54 | CC(=O)NS(=O)(=O)c1ccc(NS(=O)(=O)c2ccc(C)cc2)cc1 | 14.6
55 | CC1=C(C(=O)OCCCc2ccccc2)C(c2ccccc2F)CC(=O)N1 (centres undefined) | -5.4
56 | CC(C)c1ccc(NC(=O)c2cnn(-c3ccccc3)c2NC(=O)c2ccco2)cc1 | -6.4
57 | O=C1NC(=O)N(c2ccc(Br)cc2)C(=O)/C1=C/c1cccc([N+](=O)[O-])c1 | 7.1
58 | COc1cc(NC(=O)c2ccc(C)cc2)cc(OC)c1 | -8.9
59 | O=C(/C=C/c1ccccc1)NCc1ccc2c(c1)OCO2 | 0
60 | C/C(=C\C(=O)c1ccc(Br)cc1)Nc1ccccc1F | -5.1
61 | C/C(=N\NC(N)=S)C1=CC(C)(C)CCC1 | -18
62 | O=C(NC1CCCCC1)C12CC3CCC(CC(C3)C1)C2 | 3.8
63 | COc1ccc(N(CC(=O)NC(C)(C)C)S(C)(=O)=O)cc1Cl | -6.9
64 | CCCOc1ccc(C2NC(=O)N(C)C(C)=C2C(=O)OCC)cc1OC (centres undefined) | -6.9
65 | Cc1cc(C)c(S(=O)(=O)c2ccccc2C(C)(C)C)c(C)c1 | 12.3
66 | COc1ccc(N(C(C)C(=O)N/N=C/c2cc(C)n(-c3ccccc3C(F)(F)F)c2C)S(C)(=O)=O)cc1 (centres undefined) | -40.1
67 | COc1ccc(CCNc2cc(N3CCN(C(=O)c4ccc(Cl)cc4)CC3)ccc2[N+](=O)[O-])cc1OC | 10.7
68 | CC1CC(Nc2ccccc2)c2ccccc2N1C(=O)c1ccc(Cl)cc1Cl (centres undefined) | 8.9
69 | COc1cccc(N(CC(=O)Nc2ccccc2Cl)S(=O)(=O)c2ccccc2)c1 | -2.7
